Among the data in the supplement of paper PMC10369915 are enrichment score values, retold here.

This is one part of the list. Rule as the data show it: active = 3.2 or more and inactive = the rest. Most of these values are background signal.
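Also: displayed peptides selected on beads carrying the immobilized SH2 domain, with library peptides lacking any tyrosine serving as negative controls.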

The target in the first assay is SHP2 C-SH2 domain E139D. Briefly: enrichment score (SH2-bound / input frequency) (ratio); bacterial display of known human phosphotyrosine sites (pTyr-Var adds point mutants) read by sequencing; higher = stronger binding; tyrosines were phosphorylated by kinases first. The note with it: peptide library: pTyr-Var.
As for SPPILYSFFLN [FCRL6_Y239_D244N_YF], the enrichment score is inactive: 1.55.
Regarding DEFLEHRRIVG [FAM221A_Y20_Y20H_YF], the enrichment score was inactive: 0.828.
With HRTLVYGGIFL [FBP1_Y259], the enrichment score was inactive: 0.705.
Consider GYKVRYATWSI [FGFR1_Y210], for which the enrichment score is inactive: 2.98.
On to RHTRSYDYMEG [FGF7_Y56], for which the enrichment score was inactive: 1.26.
In the case of IEENGYNTYAS [FGF10_Y161], the enrichment score was inactive: 0.592.
As for ISGGGYRACPA [FGB_Y71_R74C], the enrichment score was inactive: 0.77.
As to KEDPEYKKKFR [FAM161A_Y278_E273K], the enrichment score is inactive: 0.638.
For DEGVNYFMSKG [FBXO8_Y156], the enrichment score was inactive: 0.797.
For KRAIGHFSATS [FAM120A_Y327_Y327H_YF], the enrichment score was inactive: 0.812.
As for PEPTGYSAELS [EZR_Y499_A494P], the enrichment score was inactive: 0.612.
With FASALYGQRRS [FGF11_Y162_R163G_YF], the enrichment score was inactive: 0.229.
On to TRSFDYMEGGD [FGF7_Y58_YF], for which the enrichment score is inactive: 0.739.
Same read-out and setting: for RHTRSYDFTEG [FGF7_Y56_M59T_YF] the value was inactive: 0.815.
Still for that read-out and setting: next, VNLVLYLSIAK [FBXO15_Y496]: inactive: 0.846; LQEQNYPAVDS [FAM114A1_Y115_L116P]: inactive: 1.05; VPANRYDLLRL [FARSB_Y72_C76R]: inactive: 0.816.
For MFRAGYDTKQE [F10_Y407_C404R], the enrichment score was inactive: 1.04.

The target of the next assay is SHP2 C-SH2 domain wild-type. The description is as above. Conditions: peptide library: pTyr-Var.
As to SPPILYSFFLN [FCRL6_Y239_D244N_YF], the enrichment score was inactive: 1.51.
Turning to DEFLEHRRIVG [FAM221A_Y20_Y20H_YF], the enrichment score was inactive: 0.563.
HRTLVYGGIFL [FBP1_Y259]: the enrichment score is inactive: 1.12.
GYKVRYATWSI [FGFR1_Y210]: the enrichment score was inactive: 3.12.
On the same count and under the same terms, next, RHTRSYDYMEG [FGF7_Y56]: inactive: 0.986; IEENGYNTYAS [FGF10_Y161]: inactive: 0.53.
The same measure, in the same setting: for ISGGGYRACPA [FGB_Y71_R74C] the value was inactive: 0.812.
Take KEDPEYKKKFR [FAM161A_Y278_E273K]: the enrichment score is inactive: 1.08.
On the same count and under the same terms, for DEGVNYFMSKG [FBXO8_Y156] the value was inactive: 0.921.
Regarding KRAIGHFSATS [FAM120A_Y327_Y327H_YF], the enrichment score was inactive: 0.731.
The same measure, in the same setting: for PEPTGYSAELS [EZR_Y499_A494P] the value was inactive: 0.575.
FASALYGQRRS [FGF11_Y162_R163G_YF]: the enrichment score is inactive: 0.271.
Regarding TRSFDYMEGGD [FGF7_Y58_YF], the enrichment score is inactive: 0.507.
The same measure, in the same setting: next, RHTRSYDFTEG [FGF7_Y56_M59T_YF]: inactive: 0.868; VNLVLYLSIAK [FBXO15_Y496]: inactive: 1.03; LQEQNYPAVDS [FAM114A1_Y115_L116P]: inactive: 0.924.
For the molecule VPANRYDLLRL [FARSB_Y72_C76R], the enrichment score was inactive: 0.829.
Regarding MFRAGYDTKQE [F10_Y407_C404R], the enrichment score was inactive: 0.829.

A further assay addresses SHP2 N-SH2 domain L43F. Described as above. The note with it: peptide library: pTyr-Var.
As for SPPILYSFFLN [FCRL6_Y239_D244N_YF], the enrichment score was inactive: 1.34.
Still for that read-out and setting: for DEFLEHRRIVG [FAM221A_Y20_Y20H_YF] the value was inactive: 0.728; for HRTLVYGGIFL [FBP1_Y259], inactive: 1.39.
Regarding GYKVRYATWSI [FGFR1_Y210], the enrichment score is inactive: 2.65.
On to RHTRSYDYMEG [FGF7_Y56], for which the enrichment score is inactive: 0.867.
Regarding IEENGYNTYAS [FGF10_Y161], the enrichment score is inactive: 0.457.
Take ISGGGYRACPA [FGB_Y71_R74C]: the enrichment score was inactive: 0.781.
Still for that read-out and setting: for KEDPEYKKKFR [FAM161A_Y278_E273K] the value was inactive: 0.782; for DEGVNYFMSKG [FBXO8_Y156], inactive: 0.851; for KRAIGHFSATS [FAM120A_Y327_Y327H_YF], inactive: 0.668.
Turning to PEPTGYSAELS [EZR_Y499_A494P], the enrichment score is inactive: 0.621.
As to FASALYGQRRS [FGF11_Y162_R163G_YF], the enrichment score is inactive: 0.194.
As to TRSFDYMEGGD [FGF7_Y58_YF], the enrichment score was inactive: 0.563.
On to RHTRSYDFTEG [FGF7_Y56_M59T_YF], for which the enrichment score is inactive: 0.879.
Turning to VNLVLYLSIAK [FBXO15_Y496], the enrichment score was inactive: 0.535.
For the molecule LQEQNYPAVDS [FAM114A1_Y115_L116P], the enrichment score is inactive: 0.628.
In the case of VPANRYDLLRL [FARSB_Y72_C76R], the enrichment score is inactive: 0.927.
Consider MFRAGYDTKQE [F10_Y407_C404R], for which the enrichment score is inactive: 0.805.

For another assay, the target named is SHP2 N-SH2 domain T42A. The description is as above. Conditions: peptide library: pTyr-Var.
Regarding SPPILYSFFLN [FCRL6_Y239_D244N_YF], the enrichment score is inactive: 1.47.
Consider DEFLEHRRIVG [FAM221A_Y20_Y20H_YF], for which the enrichment score was inactive: 0.675.
The same measure, in the same setting: for HRTLVYGGIFL [FBP1_Y259] the value was inactive: 0.765; for GYKVRYATWSI [FGFR1_Y210], inactive: 3.03.
Regarding RHTRSYDYMEG [FGF7_Y56], the enrichment score was inactive: 0.813.
The same measure, in the same setting: for IEENGYNTYAS [FGF10_Y161] the value was inactive: 0.516; for ISGGGYRACPA [FGB_Y71_R74C], inactive: 0.648; for KEDPEYKKKFR [FAM161A_Y278_E273K], inactive: 0.644.
As for DEGVNYFMSKG [FBXO8_Y156], the enrichment score is inactive: 0.664.
For the molecule KRAIGHFSATS [FAM120A_Y327_Y327H_YF], the enrichment score was inactive: 0.622.
The same measure, in the same setting: for PEPTGYSAELS [EZR_Y499_A494P] the value was inactive: 0.614.
Take FASALYGQRRS [FGF11_Y162_R163G_YF]: the enrichment score was inactive: 0.257.
The same measure, in the same setting: for TRSFDYMEGGD [FGF7_Y58_YF] the value was inactive: 0.571; for RHTRSYDFTEG [FGF7_Y56_M59T_YF], inactive: 0.673.
In the case of VNLVLYLSIAK [FBXO15_Y496], the enrichment score was inactive: 0.709.
Regarding LQEQNYPAVDS [FAM114A1_Y115_L116P], the enrichment score is inactive: 0.62.
Still for that read-out and setting: for VPANRYDLLRL [FARSB_Y72_C76R] the value was inactive: 0.806; for MFRAGYDTKQE [F10_Y407_C404R], inactive: 0.751.

The target in a further assay is SHP2 N-SH2 domain T52S. The description is as above. Conditions: peptide library: pTyr-Var.
Consider SPPILYSFFLN [FCRL6_Y239_D244N_YF], for which the enrichment score is inactive: 1.52.
Still for that read-out and setting: for DEFLEHRRIVG [FAM221A_Y20_Y20H_YF] the value was inactive: 0.656; for HRTLVYGGIFL [FBP1_Y259], inactive: 0.931.
GYKVRYATWSI [FGFR1_Y210]: the enrichment score was inactive: 2.71.
On the same count and under the same terms, for RHTRSYDYMEG [FGF7_Y56] the value was inactive: 1.15; for IEENGYNTYAS [FGF10_Y161], inactive: 0.439.
On to ISGGGYRACPA [FGB_Y71_R74C], for which the enrichment score was inactive: 0.582.
For the molecule KEDPEYKKKFR [FAM161A_Y278_E273K], the enrichment score was inactive: 0.878.
DEGVNYFMSKG [FBXO8_Y156]: the enrichment score was inactive: 0.777.
Still for that read-out and setting: for KRAIGHFSATS [FAM120A_Y327_Y327H_YF] the value was inactive: 0.687.
Consider PEPTGYSAELS [EZR_Y499_A494P], for which the enrichment score was inactive: 0.551.
With FASALYGQRRS [FGF11_Y162_R163G_YF], the enrichment score is inactive: 0.269.
Same read-out and setting: for TRSFDYMEGGD [FGF7_Y58_YF] the value was inactive: 0.538; for RHTRSYDFTEG [FGF7_Y56_M59T_YF], inactive: 0.649; for VNLVLYLSIAK [FBXO15_Y496], inactive: 0.628.
As for LQEQNYPAVDS [FAM114A1_Y115_L116P], the enrichment score was inactive: 0.793.
Regarding VPANRYDLLRL [FARSB_Y72_C76R], the enrichment score is inactive: 0.797.
Take MFRAGYDTKQE [F10_Y407_C404R]: the enrichment score was inactive: 0.783.

Another assay deals with SHP2 N-SH2 domain wild-type. The description is as above. Conditions: peptide library: pTyr-Var.
Regarding SPPILYSFFLN [FCRL6_Y239_D244N_YF], the enrichment score was inactive: 1.59.
On the same count and under the same terms, for DEFLEHRRIVG [FAM221A_Y20_Y20H_YF] the value was inactive: 0.752; for HRTLVYGGIFL [FBP1_Y259], inactive: 1.1.
For GYKVRYATWSI [FGFR1_Y210], the enrichment score was inactive: 2.44.
For RHTRSYDYMEG [FGF7_Y56], the enrichment score was inactive: 1.16.
With IEENGYNTYAS [FGF10_Y161], the enrichment score is inactive: 0.674.
Still for that read-out and setting: next, ISGGGYRACPA [FGB_Y71_R74C]: inactive: 0.889; KEDPEYKKKFR [FAM161A_Y278_E273K]: inactive: 0.815; DEGVNYFMSKG [FBXO8_Y156]: inactive: 1.13.
On the same count and under the same terms, for KRAIGHFSATS [FAM120A_Y327_Y327H_YF] the value was inactive: 0.762; for PEPTGYSAELS [EZR_Y499_A494P], inactive: 0.56; for FASALYGQRRS [FGF11_Y162_R163G_YF], inactive: 0.263.
On to TRSFDYMEGGD [FGF7_Y58_YF], for which the enrichment score is inactive: 0.643.
Still for that read-out and setting: for RHTRSYDFTEG [FGF7_Y56_M59T_YF] the value was inactive: 0.878; for VNLVLYLSIAK [FBXO15_Y496], inactive: 1.57; for LQEQNYPAVDS [FAM114A1_Y115_L116P], inactive: 0.899.
Regarding VPANRYDLLRL [FARSB_Y72_C76R], the enrichment score is inactive: 0.712.
Same read-out and setting: for MFRAGYDTKQE [F10_Y407_C404R] the value was inactive: 0.967.
